# According to PubChem BioAssay AID624296 (National Center for Advancing Translational Sciences (NCATS), 2012):
# Where “and” joins values, the source holds several entries; their conditions need not be identical. Identical values can stand only once. Among all 350,000 compounds or so, about 9,900 (2.8%) were called active. This list was built around the results that the source calls inconclusive (neither active nor inactive); the mix of calls is not that of the screen. Calls come from the whole dose curve; as a rule, active = well fitted activation curve with a large enough effect; inconclusive = small, poorly fitted or top-dose-only effect; inactive = no such curve, though single readings can be large or run the other way. Where the call is inconclusive, the potency comes from a doubtful curve fit.
# Assay: A quantitative high throughput screen for small molecules that induce DNA re-replication in MCF 10a normal breast cells. For activity, positive = re-replication: % of control where 0% means no effect. Note: nearly all actives have a fitted effect of over 50% in size.
# Settings: MCF 10A DNA re-replication, Hoechst nuclear intensity, 48 h; activity, positive = re-replication: at 46.1 µM (top of the series)
# Potency is the fitted concentration of half-maximal effect; tags give direction and shape of the fitted curve.
SMILES,Potency,"activity, positive = re-replication"
Cc1cc(C)cc(C(=O)N2CC(C)SC2=Nc2cccc(S(=O)(=O)N(C)C)c2)c1 (stereo unspecified),"inconclusive: 32.6 µM [activator, single point]",
Cn1nccc1C(=O)N1CCc2c([nH]c3ccccc23)C1c1ccc(F)cc1 (stereo unspecified),"inconclusive: 20.6 µM [activator, partial curve, poor fit]",
CCCCNC(=O)CN1C(=O)NC(Cc2ccccc2)(Cc2ccccc2)C1=O,"inconclusive: 32.6 µM [activator, single point]",
CC(=O)n1cc([C@@H]2C=C(C(=O)N3CCN(Cc4ccccc4)CC3)O[C@H](OCc3ccc(CO)cc3)C2)c2ccccc21,"inconclusive: 14.6 µM [activator, single point]",
CC(C)(C)NC(=O)C(OC(=O)Cn1nnc(-c2ccc(F)cc2)n1)c1ccncc1 (stereo unspecified),active: 20.6 µM,
CC(C)(C)c1ccc(-c2cc(-c3ccccc3O)[nH]n2)cc1,active: 9.2 µM,
COc1ccc(C2=NOC(Cn3nc(C(=O)NCc4ccc5c(c4)OCO5)cc3-c3ccccc3)C2)cc1 (stereo unspecified),"inconclusive: 18.4 µM [activator, single point]",
CCCn1nc(NC(=O)C2CCCO2)c2cc3cccc(C)c3nc21 (stereo unspecified),"inconclusive: 23.1 µM [activator, partial curve, poor fit]",
CC(C)Nc1ccc(-n2nc3ccccc3[n+]2[O-])cc1,"inconclusive: 18.4 µM [activator, single point]",
COc1ccc(C2c3ccc4ccccc4c3Oc3ncn(CCCN(C)C)c(=N)c32)cc1 (stereo unspecified),active: 20.6 µM,
COc1ccc(-n2c(CNC(=O)COc3ccc(Cl)cc3Cl)n[nH]c2=S)cc1,"inconclusive: 29.1 µM [activator, single point]",
COC(=O)N/N=C(\C)c1ccco1,,inactive: -0.222%
CC(=O)Oc1ccc(C(=O)Nc2cccnc2)cc1,"inconclusive: 4.61 µM [activator, single point]",
c1ccc(N/N=C(\Cc2nc3ccccc3[nH]2)c2ccccc2)cc1,"inconclusive: 29.1 µM [activator, single point]",
Clc1ccc(OCc2nn3c(-c4ccco4)nnc3s2)c(Cl)c1,"inconclusive: 32.6 µM [activator, partial curve, poor fit]",
CN(C(=O)CCNC(=O)Cn1ccc2ccccc2c1=O)c1ccc(Br)cc1,"inconclusive: 20.6 µM [activator, single point]",
CCn1cc(CNCc2ccc(OCC(O)CN(C)Cc3ccccc3)cc2)cn1 (stereo unspecified),,inactive: 19.8%
CC1CC(C)CN(CCCNC(=O)c2csc3c2CCCC3)C1 (stereo unspecified),"inconclusive: 0.0103 µM [activator, full curve, poor fit]",
CCOc1ccc(C(C)NC(=O)C2CCN(S(=O)(=O)c3ccc(OC)cc3)CC2)cc1OCC (stereo unspecified),,inactive: 0.77%
O=C(COC(=O)COc1ccc(Br)cc1)Nc1ccc2c(c1)OCCO2,,inactive: 8.3%
COc1cc([N+](=O)[O-])cc(/C=N/NC(=O)C(C)Nc2cccc3ccccc23)c1O (stereo unspecified),"inconclusive: 29.1 µM [activator, single point]",
Cc1nc(N2CCOCC2)c2oc3ccccc3c2n1,"inconclusive: 23.1 µM [activator, single point]",

SMILES,Potency,"activity, positive = re-replication"
CCN1C(=O)[C@H]2[C@H]3CN=C(SCc4ccc(Cl)cc4)N3[C@@](Cc3ccccc3)(C(=O)OC)[C@H]2C1=O,"inconclusive: 29.1 µM [activator, single point]",
COc1ccc(S(=O)(=O)NCc2cccnc2)cc1Br,,inactive: -1.19%
CSc1ccccc1OCc1cc(C(=O)NC(C)c2cnn(C)c2)no1 (stereo unspecified),,inactive: -1.91%
COc1ccc(-c2sc3cc4c(cc3c2C#CC2(N)CCCCC2)OCO4)cc1,"inconclusive: 29.1 µM [activator, single point]",
COCCNC(=S)NCCc1ccc(Cl)cc1Cl,,inactive: 1.37%
COc1ccc(C(=O)OCC(=O)NCC2CCCO2)c(F)c1 (stereo unspecified),,inactive: -1.8%
Cc1cccc(NC(=O)c2cc(S(=O)(=O)N(C)c3ccc(F)cc3)ccc2Cl)n1,"inconclusive: 5.8 µM [activator, single point]",
Cc1nc(N/N=C/c2ccc(Br)cc2)cc(N2CCOCC2)n1,"inconclusive: 16.4 µM [activator, single point]",
COc1ccc2nc3c(cc2c1)c(NC(=O)c1cccs1)nn3CC(C)C,"inconclusive: 2.91 µM [activator, full curve, poor fit]",
Cc1ccc2cc(CN(c3ccccc3C)S(=O)(=O)c3ccccc3)c(=O)[nH]c2c1,"inconclusive: 7.31 µM [activator, partial curve]",
Cc1ccc(C(=O)Nc2nnc(S(=O)(=O)N3CCOCC3)s2)cc1,,inactive: 13.3%
Cc1cc(C(=O)N2CCCC(N3CCN(c4ccccc4C)CC3)C2)n(C)n1 (stereo unspecified),,inactive: 4.35%
Cn1cc([N+](=O)[O-])c(C(=O)Nc2nc(-c3ccc(Cl)cc3)cs2)n1,active: 5.17 µM,
COc1ccccc1-c1csc(NC(=O)c2cc(-c3cccs3)nc3ccccc23)n1,"inconclusive: 18.4 µM [activator, single point]",
c1ccc(-c2cn3c(n2)CCc2ccc4cccnc4c2-3)cc1,"inconclusive: 23.1 µM [activator, single point]",
Cc1ccc(NC(=O)c2ccc(N/N=C/c3cccc(O)c3)c([N+](=O)[O-])c2)cc1,"inconclusive: 18.4 µM [activator, single point]",
O=C(CC1Sc2ccccc2NC1=O)NNc1ccc(Cl)c(Cl)c1 (stereo unspecified),"inconclusive: 29.1 µM [activator, single point]",
CCOC(=O)c1cnn2c(C(F)(F)F)cc(-c3ccco3)nc12,,inactive: -0.291%
Cc1cccc(-c2oc3ccc(-c4ccc5c(c4)OCO5)cc3c2/C=C/c2ccc(N)cc2)c1,,inconclusive: 643% [activator]
CCOC(=O)c1c(NC(=O)CSc2c[nH]c3ccccc23)sc2c1CCCC2,"inconclusive: 13 µM [activator, partial curve, poor fit]",
O=C(Nc1ccc(Nc2ccccc2)cc1)c1ccccc1F,"inconclusive: 16.4 µM [activator, partial curve, poor fit]",
O=C1N(Cc2cccc(Cl)c2)C[C@@H]2C[C@@H](c3cccc4cccnc34)N3CCC[C@@]123,"inconclusive: 5.8 µM [activator, partial curve, poor fit]",

SMILES,Potency,"activity, positive = re-replication"
Cc1nc(C(=O)NC2CC2)sc1C1(C)CC(c2cccc([N+](=O)[O-])c2)=NO1 (stereo unspecified),,inactive: 18%
O=C(Nc1cccc(C(=O)Nc2ccc(Br)cc2)c1)c1ccccc1,"inconclusive: 29.1 µM [activator, single point]",
CC[C@@]12C(=O)N(c3ccc(C)cc3)C(=O)N1[C@H](c1ccc(Br)cc1)[C@@H]1C(=O)N(C(C)(C)C)C(=O)[C@@H]12,,inactive: -8.06%
Oc1c(I)cc(I)c2cccnc12,"inconclusive: 11.9 µM [activator, single point] and inconclusive: 146 nM [activator, full curve, poor fit]",
Cc1cc(C)c(C#N)c(SCc2nc3ccccc3c(=O)[nH]2)n1,active: 10.3 µM,
CCS(=O)(=O)Nc1cccc(-c2cc(-c3ccccc3)c3cc(C)ccc3n2)c1,active: 14.6 µM,
Clc1cccc(Cl)c1CSc1nnc(-c2ccncc2)s1,"inconclusive: 3.26 µM [activator, partial curve, poor fit]",
CCc1nnc(NC(=O)CN2CCN(c3nc(-c4ccccc4)cs3)CC2)s1,"inconclusive: 6.51 µM [activator, partial curve, poor fit]",
O=C(Cn1ccc(NC(=O)OCc2ccccc2)nc1=O)NCC1CCCO1 (stereo unspecified),"inconclusive: 0.58 µM [activator, partial curve, poor fit]",
CC1CCC(=O)N(CCSc2ccccc2)CC1 (stereo unspecified),"inconclusive: 0.651 µM [activator, full curve, poor fit]",
COC(=O)c1ccc(OCC(O)Cn2nnc3ccccc32)cc1 (stereo unspecified),,inactive: 0.0833%
O=C(COC(=O)CCCSc1nc2ccccc2[nH]1)NC(=O)NC1CCCC1,"inconclusive: 10.3 µM [activator, partial curve, poor fit]",
Cc1ccc(NNC(=O)c2ccc(Cl)cc2)nn1,"inconclusive: 29.1 µM [activator, single point]",
Cc1cc(C)c(CN2CCC(n3nccc3NC(=O)c3ccccc3Cl)CC2)cc1C,"inconclusive: 0.146 µM [activator, full curve, poor fit]",
Cn1nc([N+](=O)[O-])c(C(C#N)c2nc3ccccc3n2C)c(Cl)c1=O (stereo unspecified),"inconclusive: 16.4 µM [activator, single point]",
COc1ccc(C2(O)CN(c3ccccc3)C3=[N+]2CCS3)cc1OC (stereo unspecified),"inconclusive: 16.4 µM [activator, partial curve, poor fit]",
CSc1ccc(CN2CCC(n3nccc3NC(=O)CCCc3ccccc3)CC2)cc1,"inconclusive: 25.9 µM [activator, partial curve, poor fit]",
CCCN1CCN(S(=O)(=O)c2ccc(-n3cnnn3)cc2)CC1,,inactive: 0.116%
O=C(c1ccc(Cl)c(S(=O)(=O)N2CCCCCC2)c1)N1CCCC(C(F)(F)F)C1 (stereo unspecified),"inconclusive: 4.11 µM [activator, partial curve, poor fit]",
Cn1nccc1C(=O)N1CCN(S(=O)(=O)c2ccc(Br)s2)CC1,"inconclusive: 20.6 µM [activator, partial curve, poor fit]",
CCCc1nnc(NC(=O)Cn2c(=O)sc3ccccc32)s1,,inactive: -4.52%
COc1cccc(/C=c2\s/c(=C\C(=O)C(C)(C)C)[nH]c2=O)c1,"inconclusive: 29.1 µM [activator, partial curve, poor fit]",
